# Laboratory results: the supplement of paper PMC8728848
# This is one part of the list.
# Columns and labels:
# Assay in all cases: glycan array binding signal (z-score within array); higher = stronger binding
# Settings in all cases: glycan notation: IUPAC condensed, linker removed; mutation: R343I
# [1] = biological target: Neu5Ac(a2-3)Gal(b1-3)[Fuc(a1-4)]GlcNAc(b1-3)Gal(b1-4)[Fuc(a1-3)]GlcNAc
# Procedure, shortened: (§1)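 Glycan array data were curated from 3228 arrays in the Consortium for Functional Glycomics database and kept only where the protein sequence was available. Glycan names were converted to IUPAC-condensed notation, and columns mapping to the same glycan were averaged. The binding signal is a within-array Z-score, averaged across arrays of the same protein sequence at different concentrations or buffers and across linkers. Negative Z-scores can be read as non-binding.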
# [2] = biological target: Neu5Ac(a2-3)Gal(b1-3)[Neu5Ac(a2-3)Gal(b1-4)]GlcNAc
# Procedure, shortened: as §1
# [3] = biological target: Neu5Ac(a2-3)Gal(b1-3)[Neu5Ac(a2-6)]GalNAc
# Procedure, shortened: as §1
# [4] = biological target: Neu5Ac(a2-3)Gal(b1-4)Glc
# Procedure, shortened: as §1
# [5] = biological target: Neu5Ac(a2-3)Gal(b1-4)GlcNAc
# Procedure, shortened: as §1
# [6] = biological target: Neu5Ac(a2-3)Gal(b1-4)GlcNAc(b1-2)Man(a1-3)[GlcNAc(b1-2)Man(b1-4)GlcNAc(b1-2)Man(a1-6)]Man(b1-4)GlcNAc(b1-4)GlcNAc
# Procedure, shortened: as §1
# [7] = biological target: Neu5Ac(a2-3)Gal(b1-4)GlcNAc(b1-2)Man(a1-3)[Neu5Ac(a2-6)Gal(b1-4)GlcNAc(b1-2)Man(a1-6)]Man(b1-4)GlcNAc(b1-4)GlcNAc
# Procedure, shortened: as §1
# [8] = biological target: Neu5Ac(a2-3)Gal(b1-4)GlcNAc(b1-3)Gal(b1-3)GlcNAc
# Procedure, shortened: as §1
# [9] = biological target: Neu5Ac(a2-3)Gal(b1-4)GlcNAc(b1-3)Gal(b1-4)GlcNAc
# Procedure, shortened: as §1
# [10] = biological target: Neu5Ac(a2-3)Gal(b1-4)GlcNAc(b1-3)Gal(b1-4)GlcNAc(b1-3)Gal(b1-4)GlcNAc
# Procedure, shortened: as §1
# [11] = biological target: Neu5Ac(a2-3)Gal(b1-4)GlcNAc(b1-3)Gal(b1-4)[Fuc(a1-3)]GlcNAc
# Procedure, shortened: as §1
# [12] = biological target: Neu5Ac(a2-3)Gal(b1-4)GlcNAc(b1-6)[Gal(b1-3)]GalNAc
# Procedure, shortened: as §1
# [13] = biological target: Neu5Ac(a2-3)Gal(b1-4)GlcNAc(b1-6)[Neu5Ac(a2-3)Gal(b1-3)]GalNAc
# Procedure, shortened: as §1
# [14] = biological target: Neu5Ac(a2-3)Gal(b1-4)GlcNAc6S
# Procedure, shortened: as §1
# [15] = biological target: Neu5Ac(a2-3)Gal(b1-4)[Fuc(a1-3)]GlcNAc
# Procedure, shortened: as §1
# [16] = biological target: Neu5Ac(a2-3)Gal(b1-4)[Fuc(a1-3)]GlcNAc(b1-3)Gal
# Procedure, shortened: as §1
# [17] = biological target: Neu5Ac(a2-3)Gal(b1-4)[Fuc(a1-3)]GlcNAc(b1-3)Gal(b1-4)GlcNAc
# Procedure, shortened: as §1
# [18] = biological target: Neu5Ac(a2-3)Gal(b1-4)[Fuc(a1-3)]GlcNAc(b1-3)Gal(b1-4)[Fuc(a1-3)]GlcNAc(b1-3)Gal(b1-4)[Fuc(a1-3)]GlcNAc
# Procedure, shortened: as §1
# [19] = biological target: Neu5Ac(a2-3)Gal(b1-4)[Fuc(a1-3)]GlcNAc(b1-6)[Gal(b1-3)]GalNAc
# Procedure, shortened: as §1
# [20] = biological target: Neu5Ac(a2-3)Gal(b1-4)[Fuc(a1-3)]GlcNAc6S
# Procedure, shortened: as §1
# [21] = biological target: Neu5Ac(a2-3)Gal6S(b1-4)GlcNAc
# Procedure, shortened: as §1
# [22] = biological target: Neu5Ac(a2-3)Gal6S(b1-4)[Fuc(a1-3)]GlcNAc
# Procedure, shortened: as §1
# [23] = biological target: Neu5Ac(a2-3)GalNAc
# Procedure, shortened: as §1
# [24] = biological target: Neu5Ac(a2-3)GalNAc(b1-4)GlcNAc
# Procedure, shortened: as §1
# [25] = biological target: Neu5Ac(a2-3)[GalNAc(b1-4)]Gal(b1-4)Glc
# Procedure, shortened: as §1
# [26] = biological target: Neu5Ac(a2-3)[GalNAc(b1-4)]Gal(b1-4)GlcNAc
# Procedure, shortened: as §1
# [27] = biological target: Neu5Ac(a2-3)[Neu5Ac(a2-6)]GalNAc
# Procedure, shortened: as §1
# [28] = biological target: Neu5Ac(a2-6)Gal
# Procedure, shortened: as §1
# [29] = biological target: Neu5Ac(a2-6)Gal(b1-4)Glc
# Procedure, shortened: as §1
# [30] = biological target: Neu5Ac(a2-6)Gal(b1-4)GlcNAc
# Procedure, shortened: as §1
# [31] = biological target: Neu5Ac(a2-6)Gal(b1-4)GlcNAc(b1-2)Man(a1-3)[Gal(b1-4)GlcNAc(b1-2)Man(a1-6)]Man(b1-4)GlcNAc(b1-4)GlcNAc
# Procedure, shortened: as §1
# [32] = biological target: Neu5Ac(a2-6)Gal(b1-4)GlcNAc(b1-2)Man(a1-3)[GlcNAc(b1-2)Man(a1-6)]Man(b1-4)GlcNAc(b1-4)GlcNAc
# Procedure, shortened: as §1
# [33] = biological target: Neu5Ac(a2-6)Gal(b1-4)GlcNAc(b1-2)Man(a1-3)[GlcNAc(b1-2)Man(b1-4)GlcNAc(b1-2)Man(a1-6)]Man(b1-4)GlcNAc(b1-4)GlcNAc
# Procedure, shortened: as §1
# [34] = biological target: Neu5Ac(a2-6)Gal(b1-4)GlcNAc(b1-2)Man(a1-3)[Neu5Ac(a2-6)Gal(b1-4)GlcNAc(b1-2)Man(a1-6)]Man(b1-4)GlcNAc(b1-4)GlcNAc
# Procedure, shortened: as §1
# [35] = biological target: Neu5Ac(a2-6)Gal(b1-4)GlcNAc(b1-2)Man(a1-6)[Gal(b1-4)GlcNAc(b1-2)Man(a1-3)]Man(b1-4)GlcNAc(b1-4)GlcNAc
# Procedure, shortened: as §1
# [36] = biological target: Neu5Ac(a2-6)Gal(b1-4)GlcNAc(b1-2)Man(a1-6)[GlcNAc(b1-2)Man(a1-3)]Man(b1-4)GlcNAc(b1-4)GlcNAc
# Procedure, shortened: as §1
# [37] = biological target: Neu5Ac(a2-6)Gal(b1-4)GlcNAc(b1-3)Gal(b1-4)GlcNAc
# Procedure, shortened: as §1
# [38] = biological target: Neu5Ac(a2-6)Gal(b1-4)GlcNAc(b1-3)Gal(b1-4)[Fuc(a1-3)]GlcNAc(b1-3)Gal(b1-4)[Fuc(a1-3)]GlcNAc
# Procedure, shortened: as §1
# [39] = biological target: Neu5Ac(a2-6)Gal(b1-4)GlcNAc6S
# Procedure, shortened: as §1
# [40] = biological target: Neu5Ac(a2-6)GalNAc
# Procedure, shortened: as §1
# [41] = biological target: Neu5Ac(a2-6)GalNAc(b1-4)GlcNAc
# Procedure, shortened: as §1
# [42] = biological target: Neu5Ac(a2-8)Neu5Ac
# Procedure, shortened: as §1
# [43] = biological target: Neu5Ac(a2-8)Neu5Ac(a2-3)Gal(b1-4)Glc
# Procedure, shortened: as §1
# [44] = biological target: Neu5Ac(a2-8)Neu5Ac(a2-3)[GalNAc(b1-4)]Gal(b1-4)Glc
# Procedure, shortened: as §1
# [45] = biological target: Neu5Ac(a2-8)Neu5Ac(a2-8)Neu5Ac
# Procedure, shortened: as §1
# [46] = biological target: Neu5Ac(a2-8)Neu5Ac(a2-8)Neu5Ac(a2-3)Gal(b1-4)Glc
# Procedure, shortened: as §1
# [47] = biological target: Neu5Ac(a2-8)Neu5Ac(a2-8)Neu5Ac(a2-3)[GalNAc(b1-4)]Gal(b1-4)Glc
# Procedure, shortened: as §1
# [48] = biological target: Neu5Ac(a2-8)Neu5Ac(a2-8)Neu5Ac(a2-8)Neu5Ac(a2-3)[GalNAc(b1-4)]Gal(b1-4)Glc
# Procedure, shortened: as §1
# [49] = biological target: Neu5Ac(b2-6)Gal(b1-4)GlcNAc
# Procedure, shortened: as §1
# [50] = biological target: Neu5Ac(b2-6)GalNAc
# Procedure, shortened: as §1
# [51] = biological target: Neu5Ac9Ac(a2-6)Gal(b1-4)GlcNAc
# Procedure, shortened: as §1
# [52] = biological target: Neu5Gc(a2-3)Gal(b1-3)GlcNAc
# Procedure, shortened: as §1
# [53] = biological target: Neu5Gc(a2-3)Gal(b1-3)[Fuc(a1-4)]GlcNAc
# Procedure, shortened: as §1
# [54] = biological target: Neu5Gc(a2-3)Gal(b1-4)Glc
# Procedure, shortened: as §1
# [55] = biological target: Neu5Gc(a2-3)Gal(b1-4)GlcNAc
# Procedure, shortened: as §1
# [56] = biological target: Neu5Gc(a2-3)Gal(b1-4)[Fuc(a1-3)]GlcNAc
# Procedure, shortened: as §1
# [57] = biological target: Neu5Gc(a2-6)Gal(b1-4)GlcNAc
# Procedure, shortened: as §1
# [58] = biological target: Neu5Gc(a2-6)GalNAc
# Procedure, shortened: as §1
# [59] = biological target: Neu5Gc(b2-6)Gal(b1-4)GlcNAc
# Procedure, shortened: as §1
binder,measurement,setting,value
Surfactant Protein D (Human); Neck + Carbohydrate Recognition Domain (NCRD) (Homo sapiens) (protein) MLLFLLSALVLLTQPLGYLEAEMKTYSHRTMPSACTLVMCSSVESGLPGRDRDGREGPRGEKGDPGLPGAAGQAGMPGQAGPVGPKGDNGSVGEPGPKGDTGPSGPPGPPGVPGPAGREGALGKQGNIGPQGKPGPKGEAGPKGEVGAPGMQGSAGARGLAGPKGERGVPGERGVPGNTGAAGSAGAMGPQGSPGARGPPGLKGDKGIPGDKGAKGESGLPDVASLRQQVEALQGQVQHLQAAFSQYKKVELFPNGQSVGEKIFKTAQFVKPFTEAQLLCTQAGGQLASPRSAAENAALQQLVVAKNEAAFLSMTDSKTEGKFTYPTGESLVYSNWAPGEPNDDGGSEDCVEIFTNGKWNDIACGEKRLVVCEF,glycan array binding signal (z-score),[1],-0.227
same,glycan array binding signal (z-score),[2],-0.272
same,glycan array binding signal (z-score),[3],-0.269
same,glycan array binding signal (z-score),[4],-0.277
same,glycan array binding signal (z-score),[5],-0.259
same,glycan array binding signal (z-score),[6],-0.151
same,glycan array binding signal (z-score),[7],-0.272
same,glycan array binding signal (z-score),[8],-0.278
same,glycan array binding signal (z-score),[9],-0.278
same,glycan array binding signal (z-score),[10],-0.272
same,glycan array binding signal (z-score),[11],-0.264
same,glycan array binding signal (z-score),[12],-0.278
same,glycan array binding signal (z-score),[13],-0.275
same,glycan array binding signal (z-score),[14],-0.266
same,glycan array binding signal (z-score),[15],-0.271
same,glycan array binding signal (z-score),[16],-0.275
same,glycan array binding signal (z-score),[17],-0.265
same,glycan array binding signal (z-score),[18],-0.255
same,glycan array binding signal (z-score),[19],-0.254
same,glycan array binding signal (z-score),[20],-0.272
same,glycan array binding signal (z-score),[21],-0.276
same,glycan array binding signal (z-score),[22],-0.27
same,glycan array binding signal (z-score),[23],-0.278
same,glycan array binding signal (z-score),[24],-0.276
same,glycan array binding signal (z-score),[25],-0.276
same,glycan array binding signal (z-score),[26],-0.265
same,glycan array binding signal (z-score),[27],-0.275
same,glycan array binding signal (z-score),[28],-0.27
same,glycan array binding signal (z-score),[29],-0.274
same,glycan array binding signal (z-score),[30],-0.275
same,glycan array binding signal (z-score),[31],-0.269
same,glycan array binding signal (z-score),[32],-0.257
same,glycan array binding signal (z-score),[33],-0.274
same,glycan array binding signal (z-score),[34],-0.268
same,glycan array binding signal (z-score),[35],-0.272
same,glycan array binding signal (z-score),[36],1.83
same,glycan array binding signal (z-score),[37],-0.275
same,glycan array binding signal (z-score),[38],-0.203
same,glycan array binding signal (z-score),[39],-0.275
same,glycan array binding signal (z-score),[40],-0.269
same,glycan array binding signal (z-score),[41],-0.278
same,glycan array binding signal (z-score),[42],-0.269
same,glycan array binding signal (z-score),[43],-0.267
same,glycan array binding signal (z-score),[44],-0.27
same,glycan array binding signal (z-score),[45],-0.27
same,glycan array binding signal (z-score),[46],-0.276
same,glycan array binding signal (z-score),[47],-0.271
same,glycan array binding signal (z-score),[48],-0.253
same,glycan array binding signal (z-score),[49],-0.268
same,glycan array binding signal (z-score),[50],-0.275
same,glycan array binding signal (z-score),[51],-0.269
same,glycan array binding signal (z-score),[52],-0.272
same,glycan array binding signal (z-score),[53],-0.278
same,glycan array binding signal (z-score),[54],-0.275
same,glycan array binding signal (z-score),[55],-0.267
same,glycan array binding signal (z-score),[56],-0.277
same,glycan array binding signal (z-score),[57],-0.276
same,glycan array binding signal (z-score),[58],-0.264
same,glycan array binding signal (z-score),[59],-0.26
